Some of the results follow.
Tested on: PfAP2-HC AP2 domain (GST-tagged)
Experiment: gcPBM binding intensity (ln(normalized median fluorescence intensity)); higher = stronger DNA binding
In short: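 Each value is the highest Masliner-normalised natural-log median intensity across replicate spots of either orientation of a probe. The probes were primer-extended double-stranded 36-bp intergenic genomic sequences on an Agilent 4 × 180k array, alongside negative controls, exposed for 1 h to GST-tagged P. falciparum DNA-binding domains expressed in E. coli. Bound protein was picked up with Alexa488 anti-GST antibody and scanned at 488 nm.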

Sequence	gcPBM binding intensity (ln)
TTTTTTTTTTTTTTTTGTACTCATAAAAATATATTA [XGTACX_site3458]	8.98
CATATATATATATATACACACACACCGTCCGTGTTA [CACACA_site8975]	10.1
ATTACATGATATATCACACACACATATAAATATATA [CACACA_site2830]	10.5
CACATATAGTTATATGCACACATCTTACACATATAT [CACACA_site3692]	10.3
TATCTGTATTTATATACACACATATTCTTTTTACAC [CACACA_site4798]	10.2
AAAATCACAAAACACACACACACAAAAAAAAAAAAA [CACACA_site1443]	10.5
GTTTGAAGAACTATAAATGTATAAATAAAAGTTTAG [TGCATGCA_negctrl_site222]	9.54
AAAAAAGTAAAAAAAGCACACACGAAAAAAAATAAA [CACACA_site2233]	10.1
ATGGTGCAACATTATGCACACCGTTAAATAACTAAT [CACACA_site9280]	9.61
CATGGGCAAATATTCTCACACATAAACATAAACATA [CACACA_site4597]	9.52
GAATAAATAAATAAATGTACATATATATTTATTTAT [XGTACX_site243]	9.61
GTTCGAAGTATAATTTGTACATATAAAATGGTTCCC [XGTACX_site382]	9.56
ATATGTATTTATATATGTTTGAATTTTTTTTTTTTT [CACACA_negctrl_site5]	9.45
ATTTGATCAACAAAACGTACACATATTTTCATGTGT [XGTACX_site447]	10.1
AAAACAGTGACAACTCGTACTTATATTTTTTTTTGT [XGTACX_site4968]	9.65
AGGCCCTATGTTGTTACACACATAGAATGATACATC [CACACA_site1266]	9.71
AAATTATTATGAAATGGAAAATGCATAAATTGTTTT [XGTACX_negctrl_site206]	9.63
ATTAAATAATAATAATGTACGTATTATATTAATACA [XGTACX_site5439]	9.72
TAAAATTTAAAATATACACACAAAAAGTTATTACAA [CACACA_site4080]	9.73

Sequence	gcPBM binding intensity (ln)
CTCTTTAAAAATATGGGTACAAAAAAAAAAAAAATA [XGTACX_site6185]	9.22
ATTCTTTACTCATAAAATTATATTATATAAACTTTT [XGTACX_negctrl_site554]	9.67
AATACGACAAACAAATGTACAAATAAATATTCGCGT [XGTACX_site6427]	9.78
TGAGAAAATTAAAAGGTGCTCAGAAATTTTATATTA [GTGCAC_site9954]	9.6
TTTTCTTTTAATATTTTTAATAATTATATTTTGAAA [XGTACX_negctrl_site495]	9.31
AAATTACTAATGTGCACACATACTAACGTTTAAATA [CACACA_site3572]	9.92
AAAAATGTAAAGTGCGTGCACAAAATATTTGGAAAA	9.89
CAAAGATAAAATGATGCACACAAAAGGGTGTAATAT [CACACA_site8499]	10.1
TATATTTATTTATATGTATGCATGTCTGTATATGCT [TGCATGCA_site339]	9.49
AAAGTACAATCATAATCACACGTGTCTATTATATAC [CACACA_site8103]	10.1
ACATGGTTTACACGTGCATGTGGATGACTGGACATT [TGCATGCA_site640]	9.9
TTAAAATTAAAATACGTACACACCTTATCTTTTTGG [CACACA_site7982]	9.86
GAAAAGATTTAAAAATGTACAAAAGAAAAAAAAAAA [XGTACX_site6916]	9.6
TTATTATTTATTTTTTATTATTATTATTTTTTTTTA [XGTACX_negctrl_site76]	9.63
CATATATTTTGAAACACACACATATAAAATATACAT [CACACA_site6664]	10.6
AAGTATTTCCTAAAATGTACATATAAATAAGTATAT [XGTACX_site1282]	9.59
AAATCTTAATAAAGTTGTACATAATTATGTTTAATA [XGTACX_site3348]	9.6
TTTTTTACTATATCAATTACAAAACAAAAAAAAAAA [GTGCAC_negctrl_site683]	9.2
TATCATTTGGTCTTTTACTTTTTCTGTTTTTTTTTT [CACACA_negctrl_site976]	9.91

Sequence	gcPBM binding intensity (ln)
AAATATGTTTCAAAAAGTACATTTCTATCTTTTTTT [XGTACX_site7178]	9.61
TGATAAAATATTAAATTATTTCTTTATTTAAAGATT [CACACA_negctrl_site370]	9.33
TGGTTATAATTGTACGCATGTAATTACATATTCTCT [TGCATGCA_site599]	9.75
AATATGCCTCCCCAAAAAAAATATATATATATTTAT [GTGCAC_negctrl_site716]	9.46
TATATTTAAATATATACACACATTATCATTTTCATA [CACACA_site1708]	9.77
GAATTTTAAATAAACATATAAACAGAAAAAAAAAAA [TGCATGCA_negctrl_site149]	9.51
TAGTTTTCTTAAAGATGTACTTATTAAAAATAAACT [XGTACX_site1001]	9.28
AATGATTGATTTTATTGTACGTACTCGGAATATGGT [XGTACX_site4976]	9.62
TATAGATAAATTATTTGTACTTATAAAATTATTATA [XGTACX_site2870]	9.44
TACATAACTTTAATCACACACAAACAAACACATACA [CACACA_site6235]	10.3
AAAATACATGGACACACACACACACCGATATATATA [CACACA_site5885]	10.7
ATATAATATATATACAAACACACAATTGTGTCCACA [CACACA_site1748]	10.1
AAATATACATATATATGTACATATAAATATATTTTA [XGTACX_site5266]	9.71
TTATCTTACATATATCATTAAATCATATAACAAAAA [XGTACX_negctrl_site517]	9.14
AACCTCATGGACATATGTACACATATACAATTATTT [XGTACX_site6533]	9.84
CACAAATATACAAATACACACAAATATACGCATATA [CACACA_site2384]	10
GTTATATTTAAAATAGTGCAATAAAAATAATAATAT	9.69
CCTTTATAATTGGAAACACACATATAAAGTATATAT [CACACA_site3900]	9.64

— the supplement of paper PMC11417369
